# Source: PubChem BioAssay AID488969 (Vanderbilt High Throughput Screening Facility, 2010)
# Over roughly 110,000 compounds, “z-score” has its median near -0.1; the highest 2% begin near 2. Some of the results follow. Activity calls are given as the source filed them.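 Rule for the calls: active = z-score in the third read window above 3 or below -3; inactive = the rest.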
# Molecular target: Metabotropic glutamate receptor 8 (Rattus norvegicus) (UniProt P70579)
# Assay: mGluR8 Gi/Go-coupled signaling modulation – cell-based, rat, thallium flux, HTS, primary screen (AID 488969)
# Conditions: HEK293 rat mGluR8, GIRK (G protein-gated inwardly rectifying potassium channel) thallium flux, FluoZin2; at 10 µM; stronger effect = higher value; submaximal glutamate (EC20) added with thallium
# Sequence of UniProt P70579 (P70579 whole entry, looked up): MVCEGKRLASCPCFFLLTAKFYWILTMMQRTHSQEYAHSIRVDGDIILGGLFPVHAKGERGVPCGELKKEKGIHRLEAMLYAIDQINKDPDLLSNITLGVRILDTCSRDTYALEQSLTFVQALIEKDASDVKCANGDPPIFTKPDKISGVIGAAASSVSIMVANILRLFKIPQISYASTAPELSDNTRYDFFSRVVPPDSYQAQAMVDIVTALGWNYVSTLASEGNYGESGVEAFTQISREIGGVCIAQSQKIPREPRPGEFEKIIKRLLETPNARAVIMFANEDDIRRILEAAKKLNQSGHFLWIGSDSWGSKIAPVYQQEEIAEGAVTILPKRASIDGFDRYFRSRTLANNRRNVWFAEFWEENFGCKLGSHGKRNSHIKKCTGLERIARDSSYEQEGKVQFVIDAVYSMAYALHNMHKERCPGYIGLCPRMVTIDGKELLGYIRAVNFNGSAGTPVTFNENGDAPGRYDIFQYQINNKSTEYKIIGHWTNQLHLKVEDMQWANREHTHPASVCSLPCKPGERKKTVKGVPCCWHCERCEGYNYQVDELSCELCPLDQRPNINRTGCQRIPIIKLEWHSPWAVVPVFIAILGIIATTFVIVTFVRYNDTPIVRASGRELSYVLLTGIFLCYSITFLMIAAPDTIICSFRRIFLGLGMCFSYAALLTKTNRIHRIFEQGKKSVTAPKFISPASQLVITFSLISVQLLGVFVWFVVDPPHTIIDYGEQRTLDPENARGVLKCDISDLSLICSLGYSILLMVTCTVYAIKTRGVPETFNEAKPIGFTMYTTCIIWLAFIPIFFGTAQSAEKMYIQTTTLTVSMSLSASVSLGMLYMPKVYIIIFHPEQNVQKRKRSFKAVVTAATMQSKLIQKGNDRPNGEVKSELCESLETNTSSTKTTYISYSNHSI
row,SMILES,z-score
1,Cc1ccc(-c2noc(CCC(=O)Nc3ccc4c(c3)OCO4)n2)cc1,0.0347
2,COc1ccc(-c2nc(NC(=O)Cn3c(=O)oc4ccccc43)sc2C)cc1,-0.324
3,CCOc1ccc(OCC)c(S(=O)(=O)NCc2ccccn2)c1,-0.171
4,CC1(C)C(=O)OC(C(=O)c2ccc(C(C)(C)C)cc2)C(C)(C)C1=O (stereo not given),-0.103
5,CCOc1cccc(N2C(=O)CC(N(CCc3ccc(OC)c(OC)c3)C(=O)CC)C2=O)c1 (stereo not given),-0.147
6,O=C(C1CC=CCC1)N1CCN(C(=O)C2CC=CCC2)CC1 (stereo not given),0.183
7,COC(=O)C1CCN(S(=O)(=O)c2c(C)n(C)c(=O)n(C)c2=O)CC1,0.394
8,O=C(CO)N/N=C/c1ccccc1F,0.52
9,Nc1ccc(N2CCCCCC2)cc1,-0.49
10,Fc1ccc(CSc2nnc(-c3cccnc3)n2Cc2ccco2)cc1,-0.0445
11,CC(C)(C)n1nnnc1C(c1cccnc1)N1CCN(C(=O)c2ccco2)CC1 (stereo not given),0.232
12,Cc1nc(SCC(=O)Nc2ccc3c(c2)OCCO3)c2oc3ccccc3c2n1,-0.371
13,CC1(C)C(=O)Nc2ccccc2N1C(=O)COC(=O)C1CCCCC1,-0.393
14,COc1ccc(-c2oc3ncn4nc(COc5ccccc5)nc4c3c2-c2ccc(OC)cc2)cc1,0.349
15,CC(C)NC(=O)c1ccc(N2CCOCC2)nc1,0.11
16,O=c1oc(/C=C/c2ccccc2)nc2sc3c(c12)CCC3,0.168
17,CC(=NCCN1CCNCC1)C1=C(O)CC(C)(C)CC1=O,-0.0318
18,COc1ccc(CNC(=S)NC2CCCC2)cc1,-0.126
19,Cc1cccc(OCCNc2cc(N3CCN(C)CC3)ccc2[N+](=O)[O-])c1,0.365
20,COc1ccccc1-c1noc(-c2cc(OC)c(OC)c(OC)c2)n1,-0.307
21,COCCN1C(=O)c2ccc(C(=O)O)cc2C1=O,0.445
22,CCN(CC)C(=O)CCc1nc2sc3c(c2c(=O)[nH]1)CCCC3,0.0581

row,SMILES,z-score
1,O=C(Nc1ccc(C(=O)N2CCCCC2)cc1)C1CCCCC1,-0.147
2,Cc1nn2c(nc1=O)SCC(c1ccccc1)=N2,0.0358
3,CCC(C)(C)n1nnnc1C(C(C)C)N1CCN(C)CC1 (stereo not given),0.33
4,O=C(Oc1ccc(Br)cc1C(=S)N1CCCCC1)c1cc([N+](=O)[O-])cc([N+](=O)[O-])c1,0.762
5,Oc1ccccc1/C=N/NC1=NCCCCC1,0.265
6,CC12C(=O)N(Cc3ccco3)C(=O)C1C1c3ccccc3C2c2ccccc21 (stereo not given),-0.0557
7,O=C(NCc1ccccn1)c1cnc2sccn2c1=O,-0.351
8,CC(=O)Nc1ccc(S(=O)(=O)Nc2cccc(NC(=O)C(C)(C)C)c2)cc1,-0.165
9,Nc1nc(SCc2ccc(Cl)cc2)ns1,-0.8
10,CC1C(C(=O)Nc2ccccc2)CCCC1(C)C(=O)O (stereo not given),0.276
11,Cn1nc(CC(=O)NCCN2C(=O)CSC2=O)c2ccccc2c1=O,-0.832
12,Cc1ccc(C(NC(=O)c2ccccc2)C(Cl)Cl)cc1 (stereo not given),-0.318
13,CCOC(=O)C1=C(c2ccccc2)Nc2ncnn2C1c1cc(OC)ccc1OC (stereo not given),-0.2
14,CN(C)C(=O)N1CCCC(C(=O)NCCc2ccccc2)C1 (stereo not given),0.092
15,COC(=O)c1cnn(-c2ccc(C)c(C)c2)c1-n1cccc1,-0.224
16,O=C(CN(c1ccccc1)S(=O)(=O)c1ccccc1)N1CCN(Cc2ccc3c(c2)OCO3)CC1,-0.639
17,CNc1ccc(Br)cc(C(=O)/C=C/c2cccc(OC)c2)c1=O,-0.351
18,COc1cccc(/C=N/NC(=O)Cn2ccnc2C)c1,-0.0436
19,O=C(N1CCOCC1)N1CCN(c2ccccc2F)CC1,0.209
20,CC(/C=N/n1c(C2CCCCC2)n[nH]c1=S)=C\c1ccccc1,2.13
21,O=C(NC12CC3CC(CC(C3)C1)C2)c1ccc(=O)oc1,0.319
22,CCOC(=O)c1c(C)[nH]c(C)c1C(=O)COC(=O)/C=C/c1ccc(OC(F)F)cc1,-0.244

row,SMILES,z-score
1,Cc1ccc(CN2CCN(C(=O)CCN3C(=O)c4ccccc4C3=O)CC2)cc1,1.4
2,COc1ccc(Cl)cc1NC(=S)N1CCN(c2ccccn2)CC1,-0.203
3,COc1ccc(NC2=CC(c3ccc(OC)c(OC)c3)N(c3ccc(OC)cc3)C2=O)cc1 (stereo not given),-0.044
4,CCOC(=O)c1nn(-c2ccccc2)c(=O)cc1SC(C)CC (stereo not given),-0.352
5,COC(=O)c1ccc(Cl)c(NC(=O)CN(c2ccc3c(c2)OCO3)S(C)(=O)=O)c1,0.625
6,Nc1nonc1C(=O)NCCNC(=O)c1cccs1,0.032
7,OCCNCc1cc(Br)ccc1OCc1ccc(Cl)cc1,0.286
8,O=C1C(c2ccc(F)cc2)N(CC2COc3ccccc3O2)C(=O)CN1C1CCCCC1 (stereo not given),0.063
9,CCOC(=O)c1c(C)oc2cc(Br)c(OC(=O)N3CCOCC3)cc12,-0.509
10,CCCCNC(=O)c1nnn(-c2ccccc2)c1N,-0.117
11,COc1cc(C2C3=C(CC(c4ccco4)CC3=O)Nc3ccccc3N2C(C)=O)cc(OC)c1OC (stereo not given),0.158
12,Cc1ccc2nc(-c3ccc(N4C(=NC(=O)CCC(=O)O)SC5CS(=O)(=O)CC54)cc3)sc2c1 (stereo not given),-0.29
13,Cc1cc(C)n2nc(S(=O)(=O)NCCc3ccccc3)nc2n1,0.0701
14,Cc1onc(-c2ccccc2Cl)c1C(=O)OCn1nnc2ccccc2c1=O,-1.33
15,O=C(CSc1nnc(C2CC2)n1Cc1ccccc1)N1CCN(S(=O)(=O)c2ccccc2)CC1,-0.767
16,O=c1[nH]ncn1-c1cccc(C(F)(F)F)c1,-0.581
17,COC(=O)c1ccc(CSc2nnnn2-c2ccc(C)cc2C)o1,-0.565
18,Cc1c(NS(=O)(=O)c2ccccc2)c(=O)n(-c2ccccc2)n1C,0.111
19,CCOC(=O)c1sc(=S)n(-c2ccc(Cl)cc2)c1SC,-0.0152
20,CC1CCCN(C(=O)CCCn2c(=S)[nH]c3ccccc3c2=O)C1 (stereo not given),active: 4.5
21,O=C(NCCN1C(=O)S/C(=C/c2ccccc2)C1=O)C1CCCN1C(=O)c1cccs1 (stereo not given),0.366
22,Cc1oc(C(C)(C)C)cc1C(=O)Nc1ccc(C(=O)O)cc1,0.688

row,SMILES,z-score
1,COc1ccc(N(Cc2cc3ccccc3[nH]c2=O)C(=O)C2CCCO2)cc1 (stereo not given),-0.0545
2,CC1(C)CC2CC(C)(CN2S(=O)(=O)c2ccc(N)cc2)C1 (stereo not given),0.221
3,O=C(CCNC(=O)c1ccccc1)Nc1ccc(F)c(Cl)c1,-0.196
4,Cn1c(Cn2cnc([N+](=O)[O-])n2)nnc1SCC(=O)Nc1cccc(Cl)c1,0.0505
5,CC(=O)Nc1ccc(S(=O)(=O)N2CCN(C(=O)c3ccccc3F)CC2)cc1,0.0333
6,Cc1cccc(C(=O)NC(=S)Nc2ccc(Cc3ccncc3)cc2)c1,0.66
7,Cc1cccc2cc(CN(Cc3cccs3)Cc3nnnn3Cc3ccccc3)c(=O)[nH]c12,-0.746
8,CCCC12CN3CCN(CC(C3)/C1=N\NC(=O)c1ccccc1N)C2,-0.119
9,Nc1cc(Cl)ccc1C(=O)OCC(=O)NC1CCS(=O)(=O)C1 (stereo not given),-0.00713
10,Cc1nc2sc(C(c3cccs3)N3CCC(C(N)=O)CC3)c(O)n2n1 (stereo not given),0.0412
11,COc1ccccc1-c1nnc(NC(=O)c2ccc3ncsc3c2)o1,-0.241
12,O=C1CN(C(=O)COC(=O)c2ccccc2NCc2ccco2)c2ccccc2N1,-0.656
13,COc1ccc2nc(SCC(=O)N3CCN(c4ccccc4F)CC3)c(C#N)cc2c1,0.358
14,CC(C)NC(=O)c1n[nH]c(=O)c2ccccc12,0.489
15,Cc1cccc(C(=O)NCc2nnc3c4ccccc4c(-c4ccccc4)nn23)c1,-0.742
16,N/C(=N\OC(=O)c1ccc([N+](=O)[O-])cc1)c1cccnc1,0.198
17,CCC(CC)NC(=O)c1cc(OC)c(OC)cc1[N+](=O)[O-],-0.0685
18,O=C(NC(CO)c1ccccc1)c1ccco1 (stereo not given),-0.0347
19,CCCCCCCCn1cc(C(C)=O)c(=O)[nH]c1=O,0.136
20,Nn1c(SCC(=O)Nc2ccc(S(=O)(=O)N3CCCC3)cc2)nnc1C(F)(F)F,1.36
21,O=[N+]([O-])c1cc(C=Nc2ccc3ccccc3c2)ccc1Br,-0.142
22,CCC(Oc1ccccc1)C(=O)NCCOC (stereo not given),0.0884

row,SMILES,z-score
1,Cc1cc(NS(=O)(=O)c2ccc(N3C(=O)C4C5C=CC(C5)C4C3=O)cc2)nc(C)n1 (stereo not given),0.143
2,Cc1ccc(C)c(N2CCN(C(=O)CCn3c(=S)[nH]c4cc5c(cc4c3=O)OCO5)CC2)c1,-0.145
3,O=C(CCc1nc2ccccc2s1)OCC(=O)c1ccccc1,-0.21
4,COc1ccccc1NC(=O)Cn1cnc2sc(C(=O)NCc3ccco3)c(C)c2c1=O,-0.254
5,O=C(COc1ncnc2c(Cl)cc(Cl)cc12)N1CCN(S(=O)(=O)c2ccccc2)CC1,-0.496
6,CCCC(C)NC(=O)c1cc(Cl)ccc1OC (stereo not given),-0.422
7,CCOC(=O)CC(NC(=O)c1cccs1)c1ccc(OCC)cc1 (stereo not given),-0.563
8,Cc1ccc(N2C(=O)C3CC(c4ccccc4)=C4C5C=CC(C6C(=O)N(c7ccc(C)cc7)C(=O)C56)C4C3C2=O)cc1 (stereo not given),-0.0459
9,CCN(CC)CCN1C(=O)C(O)=C(C(=O)c2sc(C)nc2C)C1c1cccnc1 (stereo not given),0.718
10,COc1ccc(CN2CCCCC2C(=O)Nc2ccc(OC)c(OC)c2)cc1OC (stereo not given),-0.107
11,Cc1cccc(N(C(=O)c2csnn2)C(C(=O)NC(C)(C)C)c2cccs2)c1 (stereo not given),-0.155
12,O=S(=O)(NCc1ccccn1)c1ccc2c(c1)OCCO2,0.456
13,O=C(CN1CCOCC1)N1CCc2ccccc2C(c2ccccc2)C1 (stereo not given),-0.0141
14,C=CCCc1ccc(C#N)c(SCc2c(C(=O)OCC)c3cc(OC(C)=O)c(Br)cc3n2C)n1,-0.0256
15,ClC(Br)=C(n1cnc2ccccc21)n1cnc2ccccc21,-0.0289
16,C=CCn1c(SCc2cc(C(=O)OC)c(C)o2)nnc1-c1ccncc1,-0.0722
17,COC(=O)c1cc(C#N)c(Oc2ccc(OC)cc2)nc1C,-0.385
18,C=CCNC(=O)c1onc(CSc2cccc(OC)c2)c1C(=O)O,-0.0506
19,CCc1ccc(NC(=O)c2cc(-c3ccc(OC)cc3)on2)cc1,-0.237
20,COc1ccc(OC)c(NC(=O)C2CCCNC2=O)c1 (stereo not given),-0.395
21,Cc1ccc(NC(=O)Cc2nn(C)c(=O)c3ccccc23)cc1F,-0.587
22,O=C(NCN1C(=O)C2C3C=CC(C3)C2C1=O)Nc1ccccn1 (stereo not given),0.599
